# Data from the supplement of paper PMC4604168 (melanoma cell lines).
# This is one part of the list. Repeats are few or missing, and single values can be far off.
# System: WM1745
# Experiment: cell count relative to DMSO control; melanoma cells; higher = more viable cells
# Conditions: library dose: low library concentration; 72 h
# 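Further: cell number obtained by counting DAPI-stained nuclei in high-throughput microscope images with image analysis software, screen run in 1,536-well plates.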
row,SMILES,cell count [%]
1,"CCCS(=O)(=O)Nc1ccc(F)c(C(=O)c2c[nH]c3ncc(Cl)cc23)c1F + N#Cc1c(O)c2c(-c3ccc(-c4ccccc4O)cc3)csc2[nH]c1=O [A769662] (first compound 0.08 µM, partner dose 2 µM)",82.2
2,"CN(c1ncccc1CNc1nc(Nc2ccc3c(c2)CC(=O)N3)ncc1C(F)(F)F)S(C)(=O)=O + CNC(=O)c1cc(Oc2ccc(NC(=O)Nc3ccc(Cl)c(C(F)(F)F)c3)cc2)ccn1 [sorafenib] (first compound 0.08 µM, partner dose 0.4 µM)",107
3,"CS(=O)(=O)c1ccc(C(=O)Nc2ccc(Cl)c(-c3ccccn3)c2)c(Cl)c1 [vismodegib] + COc1ccc2c(c1)CCC1C2CCC2(C)C(NCCCCCCN3C(=O)C=CC3=O)CCC12 [U73122] (first compound 1 µM, partner dose 0.4 µM)",96.7
4,"CS(=O)(=O)c1ccc(C(=O)Nc2ccc(Cl)c(-c3ccccn3)c2)c(Cl)c1 [vismodegib] + NC(=O)Nc1cc(-c2cccc(F)c2)sc1C(=O)N[C@H]1CCCNC1 [AZD7762] (first compound 1 µM, partner dose 0.02 µM)",103
5,"NC1(c2ccc(-c3nc4ccn5c(=O)[nH]nc5c4cc3-c3ccccc3)cc2)CCC1 + COc1cc2c(Oc3ccc4[nH]c(C)cc4c3F)ncnc2cc1OCCCN1CCCC1 [cediranib] (first compound 0.4 µM, partner dose 0.4 µM)",93.5
6,"C=C(c1ccc(C(=O)O)cc1)c1cc2c(cc1C)C(C)(C)CCC2(C)C [Bexarotene] + COc1ccc(COc2ccc(Cc3cnc(N)nc3N)cc2OC)cc1 [GW2580] (first compound 2 µM, partner dose 1 µM)",92
7,"CS(=O)(=O)c1ccc(C(=O)Nc2ccc(Cl)c(-c3ccccn3)c2)c(Cl)c1 [vismodegib] + CC(=O)c1c(C)c2cnc(Nc3ccc(N4CCNCC4)cn3)nc2n(C2CCCC2)c1=O [palbociclib] (first compound 1 µM, partner dose 0.04 µM)",87.9
8,"CN(c1ncccc1CNc1nc(Nc2ccc3c(c2)CC(=O)N3)ncc1C(F)(F)F)S(C)(=O)=O + Nc1nc(F)nc2c1ncn2[C@@H]1O[C@H](CO)[C@@H](O)[C@@H]1O [fludarabine] (first compound 0.08 µM, partner dose 0.2 µM)",83.2
9,"CS(=O)(=O)c1ccc(C(=O)Nc2ccc(Cl)c(-c3ccccn3)c2)c(Cl)c1 [vismodegib] + COc1ccc(COc2ccc(Cc3cnc(N)nc3N)cc2OC)cc1 [GW2580] (first compound 1 µM, partner dose 1 µM)",91.9
10,"CN(c1ncccc1CNc1nc(Nc2ccc3c(c2)CC(=O)N3)ncc1C(F)(F)F)S(C)(=O)=O + O=S(=O)(c1ccccc1)N(CC(F)(F)F)c1ccc(C(O)(C(F)(F)F)C(F)(F)F)cc1 [T0901317] (first compound 0.08 µM, partner dose 1.4 µM)",60.7
11,"CCCS(=O)(=O)Nc1ccc(F)c(C(=O)c2c[nH]c3ncc(Cl)cc23)c1F + Cn1cc(/C=C2\C(=O)Nc3cccnc32)c2ccccc21 [GW441756] (first compound 0.08 µM, partner dose 0.4 µM)",90.9
12,"C=C(c1ccc(C(=O)O)cc1)c1cc2c(cc1C)C(C)(C)CCC2(C)C [Bexarotene] + Oc1nc(-c2ccc(C(F)(F)F)cc2)nc2c1CSCC2 [XAV939] (first compound 2 µM, partner dose 2 µM)",82.9
13,"CN(c1ncccc1CNc1nc(Nc2ccc3c(c2)CC(=O)N3)ncc1C(F)(F)F)S(C)(=O)=O + COc1cc2c(Oc3ccc4[nH]c(C)cc4c3F)ncnc2cc1OCCCN1CCCC1 [cediranib] (first compound 0.08 µM, partner dose 0.4 µM)",85.2
14,"CCCS(=O)(=O)Nc1ccc(F)c(C(=O)c2c[nH]c3ncc(Cl)cc23)c1F + COc1ccc(COc2ccc(Cc3cnc(N)nc3N)cc2OC)cc1 [GW2580] (first compound 0.08 µM, partner dose 1 µM)",88.2
15,"NC1(c2ccc(-c3nc4ccn5c(=O)[nH]nc5c4cc3-c3ccccc3)cc2)CCC1 + O=C(O)c1ccc2c(c1)nc(Nc1cccc(Cl)c1)c1ccncc12 [CX4945] (first compound 0.4 µM, partner dose 0.4 µM)",92.5
